# In all, about 390,000 compounds went through this assay and about 4,700 (1.2%) were called active. This list was built around the results that the source calls inconclusive (neither active nor inactive); the mix of calls is not that of the screen. Calls follow the shape of the dose curve; as a rule, active = well fitted inhibition curve with a large enough effect; inconclusive = small, poorly fitted or top-dose-only effect, or another doubt; inactive = no such curve, though single readings can be large or run the other way. Where the call is inconclusive, the potency comes from a doubtful curve fit.
# Molecular target: DNA polymerase eta (Homo sapiens) (UniProt Q9Y253)
# Assay: qHTS for Inhibitors of Polymerase Eta
# Details: recombinant Pol eta, fluorescent DNA replication assay; series mostly up to 114 µM; activity change, negative = inhibition: at the top concentration
# Summary of the method: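 Fluorescent replication assay: 50 nM final substrate added after a 15 min room-temperature compound preincubation with 10 nM enzyme. Signal taken at 0 min and again at 10 min.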
# % is scaled to controls: 0 for no effect and ±100 for the full control effect; potency is read from the fitted curve at half-maximal effect; tags tell the direction and shape of the fitted curve.
# UniProt Q9Y253, sequence (Q9Y253 whole entry, looked up): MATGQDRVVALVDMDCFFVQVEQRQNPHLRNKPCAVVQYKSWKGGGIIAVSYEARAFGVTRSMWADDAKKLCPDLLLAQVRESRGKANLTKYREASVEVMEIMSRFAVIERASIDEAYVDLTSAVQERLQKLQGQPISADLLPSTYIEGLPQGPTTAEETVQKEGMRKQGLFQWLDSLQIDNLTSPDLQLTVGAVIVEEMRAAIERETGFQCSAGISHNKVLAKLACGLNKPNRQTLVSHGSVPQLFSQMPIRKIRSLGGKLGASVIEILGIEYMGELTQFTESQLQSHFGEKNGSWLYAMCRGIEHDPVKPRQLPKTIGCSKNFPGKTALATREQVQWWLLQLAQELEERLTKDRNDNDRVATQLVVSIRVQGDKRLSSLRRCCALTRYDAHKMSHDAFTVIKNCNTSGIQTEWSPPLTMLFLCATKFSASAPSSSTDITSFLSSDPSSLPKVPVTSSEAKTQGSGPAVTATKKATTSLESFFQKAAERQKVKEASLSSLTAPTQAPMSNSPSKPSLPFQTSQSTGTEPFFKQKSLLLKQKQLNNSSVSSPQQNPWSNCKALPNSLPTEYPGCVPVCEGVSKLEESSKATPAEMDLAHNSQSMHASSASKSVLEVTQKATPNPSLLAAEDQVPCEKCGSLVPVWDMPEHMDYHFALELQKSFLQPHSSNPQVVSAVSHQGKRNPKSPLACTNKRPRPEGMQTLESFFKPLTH
Structure (SMILES),Potency,"activity change, negative = inhibition"
Cc1cc(Cl)cc(Cl)c1OCC(=O)NCc1ccco1,active: 20 µM,–
CCOc1ccc(N=C(/C(C(=O)C(=O)N2CCOCC2)=C(\O)c2ccccc2)c2ccccc2)cc1,"inconclusive: 39.8 µM [inhibitor, partial curve, poor fit]",–
Cc1ccc(C(=O)NCC(=O)OCC(=O)c2c(N)n(C)c(=O)n(C)c2=O)s1,"inconclusive: 12.6 µM [inhibitor, partial curve, poor fit]",–
COc1cc([N+](=O)[O-])ccc1-c1ccc(/C=C2\C(=O)ON=C2c2ccccc2)o1,active: 79.4 µM,–
COc1ccc2c(c1)c(=O)cc(C)n2CC(=O)NCc1ccco1,"inconclusive: 25.1 µM [inhibitor, single point]",–
Cc1ccc(-c2cc(C(=O)Nc3nccs3)c3ccccc3n2)o1,"inconclusive: 14.1 µM [inhibitor, partial curve, poor fit]",–
Cc1ccc(S(=O)(=O)N2CCCCC2C(=O)NCc2ccco2)cc1 (stereo not drawn),"inconclusive: 39.8 µM [inhibitor, single point]",–
O=c1oc2ccccc2nc1/C=C(O)/C=C/c1ccc(F)cc1,"inconclusive: 31.6 µM [inhibitor, partial curve, poor fit]",–
Cc1ccc(-n2c(=O)c3c4c(sc3n(Cc3ccccc3C)c2=O)CCC4)cc1C,–,inactive: 1.48%
Cc1ccc(NC(=O)Nc2nnc(N(C)C3CCCCC3)s2)c(Cl)c1,"inconclusive: 25.1 µM [inhibitor, partial curve, poor fit]",–
CCc1ccc([C@@H]2CC=C(C(=O)O)[C@H](c3ccc(C(C)(C)C)cc3)N2S(=O)(=O)c2ccc(C)cc2)cc1,active: 31.6 µM,–
O=C(COc1ccc(-c2ccccc2)cc1)Nc1cccnc1,–,inactive: -21%
Cc1nnc(NC(=O)CSc2nc(CC(C)C)nc3c2c(=O)n(C)c(=O)n3C)s1,"inconclusive: 14.1 µM [inhibitor, partial curve, poor fit]",–
COc1ccc(C(=O)COC(=O)[C@H](C)Nc2ccc(C(F)(F)F)cc2[N+](=O)[O-])c(OC)c1,"inconclusive: 17.8 µM [inhibitor, partial curve]",–
Cc1ccc(SCC(=O)N/N=C/c2ccco2)cc1,–,inactive: -0.213%
COC(=O)c1ccc(Nc2cc(C)nc(-c3ccccc3O)n2)cc1,"inconclusive: 17.8 µM [inhibitor, single point]",–
COc1ccc(NC(=O)c2cc3c(s2)CCC3)cc1S(=O)(=O)N1CCOCC1,"inconclusive: 8.91 µM [inhibitor, full curve]",–
CC(C)(C)SCCNC(=O)CSCc1ccc([N+](=O)[O-])cc1,"inconclusive: 0.631 µM [inhibitor, full curve, poor fit]",–
O=C(O)C1CCCCC1C(=O)Nc1cccc(Br)c1 (stereo not drawn),active: 12.6 µM,–
CCOc1ccc(C(=O)c2cn(CC(=O)Nc3ccc(F)cc3)c3cc4c(cc3c2=O)OCCO4)cc1,–,inactive: -5.92%
O=C(CN1C(=O)CCC1=O)Nc1ccc(Br)cc1,–,inactive: -13.4%
COC(=O)/C=C1\SC(=NC(=O)c2cccc([N+](=O)[O-])c2)NC1=O,"inconclusive: 89.1 µM [inhibitor, single point]",–

Structure (SMILES),Potency,"activity change, negative = inhibition"
Cc1ccccc1NC(=O)CN1C(=O)N/C(=C\c2cccn2-c2cccc(C(=O)O)c2)C1=O,active: 3.16 µM,–
CC1(C)Cc2c(cnn2-c2ccccc2)C(NC(=O)C2(C(N)=O)CC2)C1 (stereo not drawn),"inconclusive: 112 µM [inhibitor, partial curve, poor fit]",–
COc1ccc(C(=O)N/N=C/c2cc(Br)ccc2O)cc1OC,–,inactive: -11.1%
CC(C(=O)OCC(=O)Nc1ncc(Cl)cc1Cl)N1C(=O)c2ccccc2C1=O (stereo not drawn),"inconclusive: 15.8 µM [inhibitor, partial curve, poor fit]",–
COc1ccc(/C=C/C(=O)Nc2ccc3c(c2)CCC3)cc1OC,"inconclusive: 4.47 µM [inhibitor, full curve, poor fit]",–
C#CCN1C(=O)S/C(=C\c2ccc(-c3ccc(C(=O)O)cc3C)o2)C1=O,active: 7.08 µM,–
Cc1[nH]n(-c2ccccc2)c(=O)c1-c1ccccc1,"inconclusive: 89.1 µM [inhibitor, partial curve, poor fit]",–
CC[N+]1(C)CCC(O)(c2ccc(OC)cc2)C(C(=O)c2ccc(OC)cc2)C1 (stereo not drawn),"inconclusive: 6.31 µM [inhibitor, partial curve, poor fit]",–
CCc1ccc(NC(=O)Cn2c(=O)n(CCCCC(=O)NCCc3ccccc3)c(=O)c3ccccc32)cc1,–,inactive: 1.67%
COc1ccc(-c2ccc(/C=N/N3C(=O)C4C5C=CC(C6CC56)C4C3=O)o2)c([N+](=O)[O-])c1 (stereo not drawn),"inconclusive: 12.6 µM [inhibitor, partial curve, poor fit]",–
Oc1ccc(/C=N/N=C/c2ccc(O)c(O)c2)cc1O,active: 0.708 µM,–
c1ccc(Cc2nn3c(C4COc5ccccc5O4)nnc3s2)cc1 (stereo not drawn),–,inactive: -7.55%
Cc1cc(C)n2nc(SCC(=O)N(C)C)nc2n1,"inconclusive: 4.47 µM [inhibitor, full curve, poor fit]",–
N#C/C(=C/c1cccn1-c1cccc(C(=O)O)c1)c1ccc(F)cc1,active: 25.1 µM,–
O=C(NCc1cccc(Cl)c1)C1CCC(=O)N(CCN2CCOCC2)C1 (stereo not drawn),"inconclusive: 39.8 µM [inhibitor, partial curve, poor fit]",–
Cc1cc(=O)oc2cc(Oc3ccc([N+](=O)[O-])cc3[N+](=O)[O-])ccc12,"inconclusive: 35.5 µM [inhibitor, partial curve, poor fit]",–
CCOC(=O)c1sc(=N)n(-c2ccc(OC)cc2)c1C,"inconclusive: 70.8 µM [inhibitor, partial curve, poor fit]",–
O=C(O)C1CN(c2nc(Cl)ccc2[N+](=O)[O-])C1,active: 20 µM,–
Cc1cc(N)ccc1-n1c(C)ccc1C,–,inactive: -2.84%
COc1ccc(-c2cc(=O)oc3c(C)c(OCc4nn[nH]n4)ccc23)cc1,"inconclusive: 14.1 µM [inhibitor, full curve, poor fit]",–
O=C(NCc1ccc2c(c1)OCO2)c1ccc2c(c1)N(Cc1ccc(F)cc1)C(=O)c1ccccc1S2=O (stereo not drawn),–,inactive: -7.12%
